{
  "source": "PubChem BioAssay (NCATS)",
  "note": "Inconclusive means that the source gave no clear call. Such entries were picked first, then a sample of the others. No potency is given beside an inconclusive call; the fits are too rough. Calls of active or inactive are those of the source. Calls come from the whole dose curve; as a rule, active = well fitted activation curve with a large enough effect; inconclusive = small, poorly fitted or top-dose-only effect, or another doubt; inactive = no such curve, though single readings can be large or run the other way. Potency is the fitted concentration of half-maximal effect; tags give direction and shape of the fitted curve.",
  "data": [
    {"experiment": "Cell Proliferation Assay against the TMD8 Cell Line (Caspase readout at 8 hrs) (AID 651713)", "settings": "TMD8 lymphoma cells, caspase activation luminescence; caspase activation: at 46.1 µM (top of the series)", "source_text": "One class of targeted therapeutics showing early clinical success in killing of ABC DLBCL lines are small molecule inhibitors of the Bruton tyrosine kinase (BTK) 11. Thus, we chose to investigate what additional compounds, if any, would synergize with the BTK inhibitor Ibrutinib (PCI-32765).\nPrior to any combination assays, using an NCATS developed oncology compound library called the Mechanism of Interrogation Plate (MIPE), two well studied ABC DLBCL lines (TMD8 and HBL1) were screened using a cell viability assay (CellTiterGlo) and a 12-point titration series for each single agent. These initial experiments offered insight into the concentration range that offered the best coverage of activity and non-activity to assure relevant data is generated. In addition to the viability signature associated with this library, we examined the apoptotic response of each agent versus the TMD8 line as judged by caspase 3/7 activation. Activity was assayed at both 8 and 16 hour time-points to gain an appreciation of which agents induced an apoptotic response in a reasonable timeframe from a therapeutic exposure perspective. MIPE was also assayed for single agent viability in a human mesenchymal stem cell (hMSC) line as a surrogate of each library members potential therapeutic index.\nThe combination plates were then generated by choosing 20 of the best compounds from this single agent screen and plated in the presence of the BTK inhibitor. The first analysis was carried out using 6x6 dose response blocks for each of the 20 compounds. […] In addition to the cell viability assay, the parallel caspase 3/7 activation and viability in hMSC assays were carried out in the 10x10 format.\nA total of 500 log growing TMD8 cells are seeded per well in 5 uL of a RPMI with glutamine (or Glutamax), without phenol red plus 5% FBS and 1X Pen/Strep into 1536 -solid white high base tissue culture treated Greiner One Bio Plates (789173-F) using a multidrop combi dispenser and a small sterile cassette. Compounds and controls totaling 23nL per well (negative control DMSO and positive control 9.2 uM Bortezomib-final) are immediately added to the plates using a 1536 head pin tool from Kalypsys. The plates are then covered with stainless steel gasket lids from Kalypsys and incubated for either 8 hours at 37C under 95% relative humidity with 5% CO2. After the desired incubation time, the plates are removed and allowed to reach room temperature before 3 uL of the Caspase Glo reagent (Promega) is added using an Aurora Flying Reagent Dispenser Bioraptor. The plates are then spun at 1000 rpms to remove bubbles and incubated for 15 minutes at room temperature before read on a ViewLux using a luminescent filter with a 10 second exposure. The relative luciferase units are used to calculated percent activity using DMSO as 0% and Bortezomib as 100%.", "values": [
      {"smiles": "Cc1cn2c(-c3cn[nH]c3)cnc2c(Nc2ccc(C(=O)N3CCNCC3)cc2F)n1", "Potency": "inconclusive [activator, single point]"},
      {"smiles": "COc1ccc2c(c1)CC[C@H]1[C@@H]2CC[C@]2(C)[C@@H](NCCCCCCN3C(=O)C=CC3=O)CC[C@H]12", "Potency": "inconclusive [activator, single point]"},
      {"smiles": "Cc1cc(-c2ccc(CC(=O)Nc3ccc(-c4cccnc4)cc3)cc2)ccn1", "Potency": "inconclusive [activator, single point]"},
      {"smiles": "CCOC(=O)C1=C(O)C(=O)N(Cc2ccccc2)C1", "Potency": "inactive"},
      {"smiles": "Cn1c2cc(S(C)=O)sc2c2cnn(Cc3cccc(N)c3)c(=O)c21", "note": "(stereo not given)", "Potency": "inactive"},
      {"smiles": "CCC(=O)N[C@H]1CC[C@H](C(=O)N(C)c2ccc(-c3nc4ccccc4o3)cc2)C1", "Potency": "inactive"},
      {"smiles": "c1ccc(-c2nn3c(c2-c2ccnc4cc(OCCN5CCOCC5)ccc24)CCC3)nc1", "Potency": "inactive"},
      {"smiles": "CCCCc1ccc(NS(=O)(=O)c2ccc(C)c(C(=O)N3CCN(c4cccc(C)c4C)CC3)c2)cc1", "Potency": "inconclusive [activator, single point]"},
      {"smiles": "Cc1nc(Nc2ncc(C(=O)Nc3c(C)cccc3Cl)s2)cc(N2CCN(CCO)CC2)n1", "Potency": "inactive"},
      {"smiles": "CNC(=O)c1cc(COc2nnc(Nc3ccc(Cl)cc3)c3ccoc23)ccn1", "Potency": "inconclusive [activator, single point]"},
      {"smiles": "CCN(CCO)CCCC(C)Nc1ccnc2cc(Cl)ccc12", "note": "(stereo not given)", "Potency": "inactive"},
      {"smiles": "Cc1cccc(-c2[nH]ncc2-c2ccc3ncccc3n2)n1", "Potency": "inactive"},
      {"smiles": "CN(C)Cc1ccc(-c2nc3cccc4c3n2CCNC4=O)cc1", "Potency": "inconclusive [activator, single point]"},
      {"smiles": "COc1cc(F)c(F)c(Nc2ccc(I)cc2F)c1NS(=O)(=O)C1(C[C@H](O)CO)CC1", "Potency": "inactive"},
      {"smiles": "Nc1nc(-c2nn(Cc3ccccc3F)c3ncccc23)nc(N)c1N1CCOCC1", "Potency": "inactive"},
      {"smiles": "CN(C)C1CCN(C(=O)c2ccc(NC(=O)Nc3nc(N4CCOCC4)nc(N4CCOCC4)n3)cc2)CC1", "Potency": "inconclusive [activator, partial curve]"},
      {"smiles": "COc1ccc(-c2c(-c3ccc(O)cc3O)n[nH]c2C)cc1", "Potency": "inactive"},
      {"smiles": "C1Cc2[nH]nc(-c3nn[nH]n3)c2C1", "Potency": "inactive"},
      {"smiles": "CN1CCN(CCOc2cc(OC3CCOCC3)c3c(Nc4c(Cl)ccc5c4OCO5)ncnc3c2)CC1", "Potency": "inconclusive [activator, single point]"},
      {"smiles": "O=c1cc(N2CCOCC2)oc2c(-c3cccc4c3sc3ccccc34)cccc12", "Potency": "active: 20.9 µM"},
      {"smiles": "CCOC(CN1C(=O)[C@](CC(=O)Nc2ccc(C)cc2)(NC(=O)Nc2ccc(C)cc2)c2ccccc21)OCC", "Potency": "inconclusive [activator, single point]"},
      {"smiles": "CC1(C)Cc2c(-c3ccccc3)c(-c3ccc(Cl)cc3)c(CC(=O)O)n2C1", "Potency": "inconclusive [activator, partial curve, poor fit]"},
      {"smiles": "c1ccc2c(-c3cnn4cc(-c5ccc(N6CCNCC6)cc5)cnc34)ccnc2c1", "Potency": "inconclusive [activator, single point]"},
      {"smiles": "O=C(C1CC1)N1CC[C@@H](Cn2c(-c3ccc(-c4ccc5occc5c4)cc3)nc3cnccc32)C1", "Potency": "active: 26.4 µM"},
      {"smiles": "NC(=O)c1ccc(I)c([N+](=O)[O-])c1", "Potency": "inactive"},
      {"smiles": "CCOc1ccc(Nc2nc(-c3c(C)nc4ccccn34)cs2)cc1", "caspase activation": "inconclusive: 65.2% [activator]"},
      {"smiles": "COc1cc(N2CCC(N3CCN(C)CC3)CC2)ccc1Nc1ncc(Cl)c(Nc2ccccc2S(=O)(=O)C(C)C)n1", "Potency": "active: 23.5 µM"},
      {"smiles": "O=C(Nc1cccnc1)N1CCC(Cc2cccc(Oc3ccc(C(F)(F)F)cn3)c2)CC1", "Potency": "inconclusive [activator, single point]"},
      {"smiles": "CC[C@H](CO)Nc1nc(NCc2ccccc2)c2ncn(C(C)C)c2n1", "Potency": "inconclusive [activator, partial curve, poor fit]"},
      {"smiles": "CC(C)n1c(C=C[C@H](O)C[C@H](O)CC(=O)O)c(-c2ccc(F)cc2)c2ccccc21", "Potency": "inactive"},
      {"smiles": "CN(C)c1ccc(C2Nc3ccc4ccccc4c3C3=C2C(=O)CC(C)(C)C3)cc1Br", "note": "(stereo not given)", "Potency": "inactive"},
      {"smiles": "CC(C)C[C@H](NC(=O)[C@H](CCc1ccccc1)NC(=O)CN1CCOCC1)C(=O)N[C@@H](Cc1ccccc1)C(=O)N[C@@H](CC(C)C)C(=O)[C@@]1(C)CO1", "Potency": "inconclusive [activator, partial curve, poor fit]"},
      {"smiles": "Nc1ncnc2nc(-c3ccc(N4CCOCC4)nc3)cc(-c3cccc(Br)c3)c12", "Potency": "inconclusive [activator, single point]"},
      {"smiles": "Cc1cccc(-c2[nH]c(C(C)(C)C)nc2-c2ccc3nccnc3c2)n1", "Potency": "inactive"},
      {"smiles": "CCC(C)N(C)C(=O)c1cc2ccccc2c(-c2ccccc2Cl)n1", "note": "(stereo not given)", "Potency": "inactive"}
    ]}
  ]
}
